# Some of the results follow.
# Test system: PfHDP1 homeodomain (GST-tagged)
# Assay: gcPBM binding intensity (ln(normalized median fluorescence intensity)); higher = stronger DNA binding
# In short: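 GST-tagged P. falciparum DNA-binding domains produced in E. coli were incubated for 1 h on an Agilent 4 × 180k array of primer-extended double-stranded 36-bp intergenic genomic probes with negative controls. Binding intensity is the highest Masliner-normalised natural-log median intensity across replicate spots of either probe orientation, with bound protein detected by Alexa488 anti-GST antibody at 488 nm.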
row,Sequence,gcPBM binding intensity (ln)
1,TAATATAAAAAAGGTACTACACGAAGGAATAAAAAT [XGTACX_site6872],7.43
2,TATAAATATATGTATGCACACATTTTTTTTGGAAAA [CACACA_site1070],8.81
3,CAGAAATAGAGATACACACACACATATATTTATGTA [CACACA_site3968],6.57
4,ATGTATGCAAAAATGGTGCATATTAAATGTATAACA [GTGCAC_site9722],10.5
5,AAAAAAAAAAGAAACACACACATTTGTCTATAATAT [CACACA_site7063],6.93
6,TTTGTTCTTTTAATGTGTACATATACACTTGTAATA [XGTACX_site2635],6.81
7,TGACCTTATGTGTTTTGAAGGGGAAAGGAAATGCGC [XGTACX_negctrl_site411],6.31
8,TCTTTTGTTTAACCTACATGCAGAATATAAGTCTTC [TGCATGCA_site99],6.56
9,ATTCATTATTCACCTTGTACACAAATGATTATCGTA [XGTACX_site455],6.78
10,AATAATTTTTTAAACACACACACATATATATATATA [CACACA_site95],9.08
11,TGTTTAAAAATAATTTGTACATATATTTTATTTCAT [XGTACX_site1272],6.38
12,ATAAAGAAATAAAGTTGTACATTATATATATATATA [XGTACX_site7729],9.41
13,AATACATACGGACACACACACACATATATATATATA [CACACA_site5884],9.34
14,ATCTAAAAATTTTACGCACACAAGTAAAAAAAAAAA [CACACA_site2485],7.14
15,TTATACACTGATAAAAGTACATTTGTATGTTTTTTT [XGTACX_site8959],6.22
16,TTTTATAATCATAATAGTACTTTTTCTTTTTCACAT [XGTACX_site5017],6.45
17,AGTAAAAAAAATATCTGTACATATTAATATAAATGT [XGTACX_site6234],6.42
18,AAATATTATTCTTTTATTTTTAAACATATAATTATA [GTGCAC_negctrl_site136],6.16
19,AAAATTCTTATAAGATGTACAATTTGTAACACTATA [XGTACX_site510],6.53
20,TTATACTCACGTTACACACACACAATATATATATAT [CACACA_site4137],8.86
21,TTTTTTACAACACGAAAATGAACAATTATAATAAAT [TGCATGCA_negctrl_site301],6.77
22,TCACATACATTACTTACACACCATATTAAGATATAC [CACACA_site4415],6.93
23,TTTTGTATATATTATTGTACTTTTAATATAGATCGT [XGTACX_site5830],6.5

row,Sequence,gcPBM binding intensity (ln)
1,AAATAAATATATAATACACACAAAAATATAAAATGT [CACACA_site3711],7
2,TAATCATAAAAAAATACACACATATAAAATATAGAT [CACACA_site7020],6.47
3,AAAAGTTAAGCAACAAATTTTATTTCTTATATATAA [TGCATGCA_negctrl_site134],6.59
4,ATATTTATAAATTGCACACAAATAATAACATTATAT [CACACA_site5322],10.6
5,TCATTCCATACTTTAACACACAAATATATTTAATCC [CACACA_site145],6.82
6,ATATATATATATATATGTACATATTCACTTATATTT [XGTACX_site5324],9.45
7,TTTTTTTTTTTGTTTTGTACATAAATTGCAACCAAT [XGTACX_site8949],8
8,TAACATAAATCCATACGTACCTATATATATATAATA [XGTACX_site2626],6.58
9,ATTTATATTAAAAGTGTGCACTTTTTTTTTTTTTTT,8.1
10,GAATATTACATGTATTGTACAGGTAATGTTAAAAAT [XGTACX_site8274],6.55
11,AAAAAAAAAAAAAAAACACACATATATATTATTGTA [CACACA_site3979],6.59
12,TTTTTTGTATTTTTCACACACTCTCTATCTCTCTCA [CACACA_site2095],6.66
13,TGTAGACTACATAGTAGTACATAATATATACATATA [XGTACX_site367],6.21
14,TTTTCTTTTAAACATATATATATATATATATATATA [XGTACX_negctrl_site559],9.52
15,TATTTATTTAATTACACACGAACATATAACCATTTC [CACACA_site211],6.81
16,TATATATATATAATTACACACAATGTTCTATATATA [CACACA_site3235],8.86
17,ATTTCTTTGCTTTTCAAACACACAAAAGTTATTATA [CACACA_site520],6.83
18,GTTGAAAAAAAAAATGCACACGCATACATATAATAT [CACACA_site8117],9.09
19,ATAATTTTCCATATTTGTACATATTTTTTTCCCTTG [XGTACX_site8146],6.87
20,TAATGACTGAAAAATTGTACATATGTATATATGTAT [XGTACX_site2415],6.09
21,ATTCTATTATAATATTCACACACTAACGTAAATCAT [CACACA_site2750],6.73
22,TATACATACATACATACACACACACCGATATATATA [CACACA_site7896],7.14

# Reference: the supplement of paper PMC11417369
